From article PMC6919601, “Identification of Plasmodium dipeptidyl aminopeptidase allosteric inhibitors by high throughput screening” (PLoS ONE, 2019)
Among all 110,000 compounds or so, about 230 (0.21%) showed an effect of 50% or more. The list shows a part of the results.

What follows are molecules tested against DPAP1 (Plasmodium falciparum, UniProt Q8IIJ9) (assay: primary screen, percent inhibition; read by cleavage of a fluorogenic dipeptide substrate; higher = more effect of the substance).
Parameters: species or system P. falciparum D10 trophozoite lysates; single well
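Also: 30 min substrate incubation versus DMSO and 10 µM JCP410 controls.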

DPAP1, sequence (Q8IIJ9 whole entry, looked up): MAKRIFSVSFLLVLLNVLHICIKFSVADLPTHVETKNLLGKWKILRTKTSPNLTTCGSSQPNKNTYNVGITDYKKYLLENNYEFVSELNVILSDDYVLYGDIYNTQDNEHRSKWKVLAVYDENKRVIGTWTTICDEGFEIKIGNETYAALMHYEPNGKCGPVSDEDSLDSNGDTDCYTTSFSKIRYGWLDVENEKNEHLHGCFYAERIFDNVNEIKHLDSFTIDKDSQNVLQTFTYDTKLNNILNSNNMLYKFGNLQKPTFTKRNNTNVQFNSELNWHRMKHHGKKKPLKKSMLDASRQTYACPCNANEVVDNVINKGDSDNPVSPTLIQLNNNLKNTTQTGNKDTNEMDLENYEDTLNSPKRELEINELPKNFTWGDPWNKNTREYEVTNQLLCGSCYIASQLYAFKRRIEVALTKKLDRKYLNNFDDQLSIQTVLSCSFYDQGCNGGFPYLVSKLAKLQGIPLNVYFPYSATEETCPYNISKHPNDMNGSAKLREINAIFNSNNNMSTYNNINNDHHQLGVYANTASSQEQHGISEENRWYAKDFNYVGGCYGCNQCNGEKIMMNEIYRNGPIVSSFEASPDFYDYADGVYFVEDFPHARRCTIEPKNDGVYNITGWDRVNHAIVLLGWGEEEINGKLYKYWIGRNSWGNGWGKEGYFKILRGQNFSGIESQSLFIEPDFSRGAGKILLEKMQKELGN

SMILES	% Inhibition @ 10 uM
Clc1ccc(CNC2CCN(Cc3ccccc3)CC2)cc1Cl	-0.0908%
CCc1nn(CC(=O)N(CC)Cc2ccccc2)c(=O)c2cc3sccc3n12	1.8%
O=C1CC(c2ccccc2)CC(=O)C1=CNCc1cccc(C(F)(F)F)c1 (stereo not shown)	9.01%
CSc1ccc(CCNC(=O)c2ccc3nc(N4CCCCC4)sc3c2)cc1	-2.37%
CS(=O)(=O)N(Cc1ccc(Cl)cc1)c1ccc(C(=O)NC2CCCC2)cc1	2.95%
COc1ccc(-c2ccc(C3C(C#N)=C(N)OC4=C3C(=O)CC(C)(C)C4)o2)cc1 (stereo not shown)	7.17%
Cc1ccnc(NC(=O)COc2cc(C)ccc2C)c1	-7.23%
O=C(Nc1ccc(S(=O)(=O)Nc2ccc(F)cc2)cc1)C1CCCCC1	1.84%
Cc1cc2cc(CNC(=S)NCc3ccccc3)ccc2n1C	-7.53%
COc1ccc(NC(=O)COc2ccc(C)cc2Br)cc1	-0.473%
O=C(O)c1c(CNCc2ccc3c(c2)OCO3)c2ccccc2n1Cc1cccc(F)c1	-0.232%
Cc1ccc(C(=O)Nc2ccc3nc(SCC(=O)N4CCCC4)sc3c2)cc1	-0.105%
[O-][n+]1c(CSc2nc3ccccc3[nH]2)c(CSc2nc3ccccc3[nH]2)[n+]([O-])c2ccccc21	8.06%
Clc1ccccc1COc1cccc(CNCc2cccnc2)c1	-0.992%
NC(=O)Cn1c(=O)n(CCCC(=O)NCc2ccccc2)c(=O)c2sccc21	-2.47%
Cc1ccc2ccc3cc(C(=O)O)[nH]c3c2n1	-3.42%
COc1cc2sc3ccccc3c(=O)c2cc1OC	0.467%
Cc1cccc(C(=O)NC(=O)Nc2c(C)cc(C)nc2C)c1	-2.63%
CC(C)(C)c1ccc(S(=O)(=O)N2CC(=O)Nc3ccccc32)cc1	-2.8%
CCn1c(SCC(=O)Nc2nc(-c3ccccc3)c(C)s2)nnc1-c1ccccc1O	-3.53%
C=Cc1ccc(Cn2c(C(=O)O)c(CNCCCc3ccccc3)c3ccccc32)cc1	3.34%
O=C(CSc1ccc(Cl)cc1)Nc1cc(C(F)(F)F)ccc1N1CCOCC1	-2.67%
Oc1nc(CN2CCCC2)nc2c1C1(CCCC1)Cc1ccccc1-2	-0.687%
CC(C)CCn1c(SCc2ccccc2)nc2c1c(=O)[nH]c(=O)n2C	-4.12%
O=C1c2ccc(Br)cc2C(=O)N1c1ccccc1F	-10.9%

SMILES	% Inhibition @ 10 uM
Oc1ncnn1Cc1ccccc1Br	-4.35%
Clc1ccc(N2CCN(CCc3ccccc3)CC2)cc1	0.0792%
O=C(CC(c1ccccc1)c1ccccc1O)NCCN1CCOCC1 (stereo not shown)	0.778%
CC(=O)OC1(c2ccccc2)CCCCC1CN(C)C (stereo not shown)	-3.58%
O=C(Cn1nnc(-c2ccc(C(F)(F)F)cc2)n1)N1CCCC1	4.58%
COc1cc(CN2CCN(S(=O)(=O)c3ccc(Cl)cc3)CC2)cc(OC)c1O	9.6%
Cc1cc(OCC(=O)Nc2ccccc2C(=O)Nc2ccccc2)ccc1Br	3.48%
CCN1C(=O)N/C(=C/c2cn(CC(=O)Nc3cccc(C)c3)c3ccccc23)C1=O	0.52%
Cc1ccc(NC(=O)c2ccc(Br)o2)cc1Cl	1.88%
CCn1c(SCC(=O)NCc2ccc(F)cc2)nc2c(c1=O)SCC2	1.39%
COc1ccccc1C(=O)Nc1cc2ccccc2oc1=O	7.49%
Cc1c(CNC(C)C)c(C(=O)O)c(C)n1Cc1ccccc1	1.41%
COc1ccc(-c2cc(C(F)(F)F)nc(SCC(=O)NCCCN3CCOCC3)n2)cc1	-4.62%
CCOC(=O)c1cc(C)n(CC2CCC(C(=O)NCc3ccc4c(c3)OCO4)CC2)c1C (stereo not shown)	3.31%
CC(=O)N1c2ccccc2N=C2CC(c3ccco3)CC(O)=C2C1c1ccco1 (stereo not shown)	-1.84%
COc1ccccc1CNC(=O)Cc1noc2ccccc12	4.7%
CCCCOc1ccc(NC(=O)C2CCCCC2C(=O)O)cc1 (stereo not shown)	-10.9%
Cc1nnc(SCC(=O)NCc2cccc(Br)c2)c2nn(-c3ccccc3)c(C)c12	3.24%
O=[N+]([O-])c1ccc(N2CCN(CC3CC=CCC3)CC2)cc1 (stereo not shown)	-3.57%
Cc1ccc2c(c1)cc1c(=O)n(CC(=O)NCCCc3ccccc3)nc(C)n12	1.68%
CCOc1cc(C2c3c(-c4c(C)cc(C)cc4O)n[nH]c3C(=O)N2CCO)ccc1O (stereo not shown)	0.00706%
CCOc1cccc2cc(C(=O)/C=C/c3ccc(C(=O)OC)cc3)c(=O)oc12	4.49%
O=C(NCc1ccccc1)c1cnn2c1NC(c1cccs1)CC2C(F)(F)F (stereo not shown)	4.33%
O=[N+]([O-])c1ccc2[nH]c3ccccc3c2c1	-1.76%
O=C1OC(c2ccc(Br)o2)=N/C1=C\c1cccc(Cl)c1Cl	-5.6%

SMILES	% Inhibition @ 10 uM
O=C(NCc1ccccc1)/C(O)=C/C(=O)c1ccccc1	5.61%
Cc1ccc(Cl)cc1N(CC(=O)N1CCN(Cc2ccccc2)CC1)S(=O)(=O)c1ccccc1	-1.24%
COc1cccc(/C=C(\C#N)C(N)=O)c1	1.91%
COc1cc(C(=O)Nc2ccc3c(c2)CCC3)ccc1OC(F)F	2.4%
NC(=O)CC(NC(=O)c1ccco1)C(=O)O (stereo not shown)	-3.65%
Cc1c2cnn(CC(=O)NC(C)(C)C)c(=O)c2c(C)n1Cc1ccccc1	2.84%
C=C(C)C(=O)N1C(=O)OCC1c1ccccc1 (stereo not shown)	-0.988%
O=C1c2ccc(Br)cc2C(=O)N1c1ccc(Cl)cc1	-2.6%
O=C(C(Cc1ccccc1)N1C(=O)C2C3c4ccccc4C(c4ccccc43)C2C1=O)N1CCOCC1 (stereo not shown)	0.685%
Clc1cccc(Cl)c1/C=N/n1cnnc1	9.21%
O=C(Nc1ccc2c(c1)OCO2)c1ccccc1Cl	-5.84%
CNC(=O)C1CCN(c2nnc(C)c3c(C)n(-c4ccc(Cl)cc4)nc23)CC1	6%
CCn1cnc2sc(C(=O)NCC3COc4ccccc4O3)c(C)c2c1=O (stereo not shown)	-1.48%
COc1ccc(CCNC(=O)COc2ccc(S(=O)(=O)NC3CCCCC3)cc2)cc1	-1.1%
COCCN(Cc1ccc(C)c(Br)c1)S(=O)(=O)c1cc(C(=O)OC)n(C)c1	-2.83%
c1ccc(-c2nonc2NCn2cnnn2)cc1	3.04%
CCOc1ccccc1C(=O)Nc1ccc(S(=O)(=O)Nc2nccs2)cc1	-3.21%
Cn1nc(-c2ccc(OCC(=O)N3CCN(Cc4ccccc4)CC3)cc2)c2ccccc2c1=O	0.315%
O=C(O)CCC(=O)c1cccc2ccccc12	-0.744%
OCC1CCCCN1CC(O)COc1ccc(Cl)cc1 (stereo not shown)	0.0792%
CCC(C)NC(=O)c1ccc(-c2nc(COc3ccccc3)c(C)o2)cc1 (stereo not shown)	3.64%
COC(=O)C1=CN(C)C=C(C(=O)OC)C1c1cccc(OC)c1	0.238%
COc1cc(/C=C2/C(=N)N3OC(C)=CC3=NC2=O)cc(Cl)c1OCCCOc1ccccc1	-1.43%
Cc1[nH]c2ccc(C(=O)NCCC3=CCCCC3)cc2c1C	-5.09%
O=Cc1cn(CC(=O)O)c2ccccc12	3.24%

SMILES	% Inhibition @ 10 uM
O=C(c1ccccc1)c1ccccc1NC(=O)C12CC3CC(CC(C3)C1)C2	0.962%
Nc1ccc(-c2nc3ccccc3s2)c(O)c1	5.66%
Cc1nc2nc(NCc3ccc(C(C)C)cc3)nn2c(O)c1C	-4.19%
O=S(=O)(Nc1ccccc1-n1cccc1)c1ccc(F)cc1	-0.425%
COc1ccc(C2CC(c3ccc(Cl)cc3)=NN2c2ccccc2)c(OC)c1 (stereo not shown)	-2.51%
CN(C)c1ccc(C2C=Cc3ccccc3N2C(=O)c2ccccc2)cc1 (stereo not shown)	1.74%
CC1=C(C(=O)OCC2CCCCC2)C(c2ccc(Br)cc2)NC(=O)N1 (stereo not shown)	1.27%
Cc1c(C(=O)O)cccc1N1C(=O)c2ccc(C(=O)O)cc2C1=O	-4.97%
CSc1cnc(Nc2nc(-c3ccc(Br)cc3)cs2)nc1	-0.884%
Cc1cc(=O)oc2cc3occ(C(C)(C)C)c3cc12	0.558%
O=C(c1ccco1)N1CCN(C(=O)c2cnn(-c3ccc(Cl)cc3)c2C2CCNCC2)CC1	0.536%
CC(C)Oc1ccc(C(=O)C2=C(O)C(=O)N(CCN(C)C)C2c2cccnc2)cc1 (stereo not shown)	-0.564%
Cc1ccc(S(=O)(=O)Nc2ccccc2/N=C/c2ccccc2)cc1	-1.62%
COc1ccc(N/C=C(/C#N)c2nc(-c3cccs3)cs2)cc1	-1.22%
CC1(C)CC(=O)C2=C(C1)OC(N)=C(C#N)C2c1cc(Cn2cnc3ccccc32)cs1 (stereo not shown)	7.05%
Cc1ccc(NC(=O)c2c(C)nc3ccccn23)cc1C	1.14%
Cc1nc2nc(NC(=O)C(C)Oc3ccccc3)nn2c(O)c1Cc1ccccc1 (stereo not shown)	-3.31%
CCCNC(=O)c1cc(-c2ccc(C)s2)nc2ccccc12	-5.88%
CCc1ccc(S(=O)(=O)c2nnn(-c3ccc(F)c(Cl)c3)c2N)cc1	4.85%
O=S(=O)(c1cccc2nonc12)N1CCN(C(c2ccccc2)c2ccccc2)CC1	1.94%
Cc1ccc(C(C(=O)NC2CCCC2)N2CC(C)CC(C)C2)cc1 (stereo not shown)	7.99%
[O-][n+]1cccc2c(Br)cc(Br)c(O)c21	4.41%
O=C1c2nccnc2C(=O)N1c1nccs1	-1.08%
Oc1ccc(Cc2nc3ccccc3[nH]2)cc1	0.565%
C=CCOc1cccc(/C=C2\C(=O)N(Cc3ccc(C)cc3)C(C)=C2C(=O)OC)c1	0.27%
